According to PubChem BioAssay (NCATS):
Where “and” joins values, the source holds several entries; their conditions need not be identical. Equal values may be shown once. Inconclusive means that the source gave no clear call. Such entries were picked first, then a sample of the others. For part of these data: Potencies beside an inconclusive call are fits to weak or partial responses and may not hold up. Calls of active or inactive are those of the source. Unless noted, calls follow the shape of the dose curve; as a rule, active = well fitted curve in the direction sought with a large enough effect; inconclusive = small, poorly fitted or top-dose-only effect, or another doubt; inactive = no such curve, though single readings can be large; an effect the other way counts as inactive or inconclusive.

Legend:
[1] = P-glycoprotein substrates identified in KB-8-5-11 adenocarcinoma cell line, qHTS therapeutic library screen (AID 1346987); conditions: activity change, negative = cytotoxicity: at 44.5 µM (top of the series); also: nearly all actives have a fitted effect of over 65% in size; as to activity change, negative = cytotoxicity: % is scaled to controls: 0 for no effect and ±100 for the full control effect
Summary of the method: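 KB-8-5-11: colchicine-selected sub-line of KB-3-1 over-expressing P-gp; assay medium lacked colchicine. 72 h drug exposure at 37 degree C, CellTiter-Glo.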

[2] = system: Zika virus NS2B-NS3 protease (unlinked complex); experiment: Primary screen GU Rhodamine qHTS for Zika virus inhibitors: Unlinked NS2B-NS3 protease assay (AID 1347159); conditions: Recombinant ZIKV NS2B-NS3 protease, Rhodamine110 substrate fluorescence; activity change, negative = inhibition: at 107 µM (top of the series); also: nearly all actives have a fitted effect of over 60% in size; as to activity change, negative = inhibition: % is scaled to controls: 0 for no effect and ±100 for the full control effect
Summary of the method: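 Noncovalent NS2B hydrophilic domain/NS3 protease complex (25 nM final) in 10 mM Tris-HCl pH 8.0, 0.01% Tween 20, preincubated 15 min with compounds (up to 114 microM), then 1.5 microM Rhodamine110 substrate. Fluorescence change over 15 min fitted to 4-parameter Hill.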

HaCat = experiment: Cytotoxic Profiling of Annotated Libraries Using Quantitative High-Throughput Screening (AID 1296008); conditions: Five cell lines viability, CellTiter-Glo ATP luminescence, 48-72 h; max response: hits give low values; also: nearly all actives have a fitted effect of over 60% in size
Summary of the method: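 Cells exposed to compounds for 48 or 72 hr at 37 degrees Celsius. Viability read as ATP-coupled luminescence with CellTiter-Glo after 10 min at room temperature.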

CAOV3 = experiment: Primary qHTS to identify gynecologic anti-cancer compounds using libraries of approved drugs and bioactive compounds (AID 1345084); conditions: Gynecologic cancer cell panel viability, ATPlite luminescence, 48 h; series mostly up to 57.5 µM; also: nearly all actives have a fitted effect of over 55% in size; as to activity change, negative = cytotoxicity: % is scaled to controls: 0 for no effect and ±100 for the full control effect
Summary of the method: (§1)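 Measured: luminescence after ATPlite addition (15 min, RT). Exposure: 48 h, 37 C, 5% CO2.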

CASKI = experiment: as above; conditions: Gynecologic cancer cell panel viability, ATPlite luminescence, 48 h; series mostly up to 57.5 µM
Summary of the method: as §1

OV90 = experiment: as above; conditions: Gynecologic cancer cell panel viability, ATPlite luminescence, 48 h; series mostly up to 57.5 µM
Summary of the method: as §1

SKOV3 = experiment: as above; conditions: Gynecologic cancer cell panel viability, ATPlite luminescence, 48 h; series mostly up to 57.5 µM
Summary of the method: as §1

[3] = Primary fluorescence-based thiol-reactive (MSTI) qHTS assay for identification of artifact compounds. (AID 1845221);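 also: thiol-reactive compounds lower the probe fluorescence signal; nearly all actives have a fitted effect of over 65% in size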
Summary of the method: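 Reactivity toward the thiol probe MSTI (4 uM) is scored by fluorescence at Ex/Em 525/598 nm after 1 h at room temperature. Acetyl-MSTI and MSTI define the activity scale.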

HeLa = experiment: Primary qHTS to identify gynecologic anti-cancer compounds using libraries of approved drugs and bioactive compounds (AID 1345084); conditions: Gynecologic cancer cell panel viability, ATPlite luminescence, 48 h; series mostly up to 57.5 µM; also: nearly all actives have a fitted effect of over 55% in size; as to activity change, negative = cytotoxicity: % is scaled to controls: 0 for no effect and ±100 for the full control effect
Summary of the method: as §1

[4] = Primary qHTS for inhibitors of nuclear receptor binding SET domain protein 2 (NSD2) in an isogenic RCH-ACV NSD2 p.E1099K mutant (9B) (AID 1645876); conditions: activity change, negative = viability loss: at 44.9 µM (top of the series) unless noted; also: nearly all actives have a fitted effect of over 70% in size
[5] = Primary qHTS for inhibitors of nuclear receptor binding SET domain protein 2 (NSD2) in an RCH-ACV wild type WT cells (2C) (AID 1645877); conditions: activity change, negative = cell killing: at 44.9 µM (top of the series) unless noted; also: nearly all actives have a fitted effect of over 70% in size
Tov112D = experiment: Primary qHTS to identify gynecologic anti-cancer compounds using libraries of approved drugs and bioactive compounds (AID 1345084); conditions: Gynecologic cancer cell panel viability, ATPlite luminescence, 48 h; series mostly up to 57.5 µM; also: nearly all actives have a fitted effect of over 55% in size
Summary of the method: as §1

Es-2 = experiment: as above; conditions: Gynecologic cancer cell panel viability, ATPlite luminescence, 48 h; series mostly up to 57.5 µM
Summary of the method: as §1

JEG-3 = experiment: as above; conditions: Gynecologic cancer cell panel viability, ATPlite luminescence, 48 h; series mostly up to 57.5 µM
Summary of the method: as §1

[6] = biological target: Cytochrome P450 2D6 (Homo sapiens) (UniProt P10635); experiment: Cytochrome P450 family 2 subfamily D member 6 (CYP2D6) small molecule antagonists: luciferase biochemical (cell-free) qHTS assay (AID 1645840; active = well fitted curve in the direction sought with a large enough effect in the repeat runs; inconclusive = weak or mixed curves; inactive = no such curve, though single readings can be large; an effect the other way counts as inactive or inconclusive; also: nearly all actives have a fitted effect of over 55% in size)
Summary of the method: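 P450-Glo luminescent screen: recombinant CYP2D6 enzyme–proluciferin substrate mix preincubated with compound 10 min at room temperature, then NADPH regeneration added for 1 h at room temperature. Detection reagent added for 20 min; luciferin light read as relative luminescence units.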

C33A = experiment: Primary qHTS to identify gynecologic anti-cancer compounds using libraries of approved drugs and bioactive compounds (AID 1345084); conditions: Gynecologic cancer cell panel viability, ATPlite luminescence, 48 h; series mostly up to 57.5 µM; also: nearly all actives have a fitted effect of over 55% in size
Summary of the method: as §1

Hek293T = experiment: as above; conditions: Gynecologic cancer cell panel viability, ATPlite luminescence, 48 h, control line for the selectivity index; series mostly up to 57.5 µM
Summary of the method: as §1

[7] = system: Zika virus NS2B-NS3 protease (linked construct); experiment: Primary screen NINDS Rhodamine qHTS for Zika virus inhibitors (AID 1347160); also: nearly all actives have a fitted effect of over 55% in size
Summary of the method: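 Purified NS2B-NS3 protease with the NS2B hydrophilic domain joined by a flexible linker (25 nM) in 10 mM Tris-HCl pH 8.0, 0.01% Tween 20, preincubated 15 min at RT with compound; Rhodamine110 peptide substrate 1.5 µM; fluorescence change over 15 min; 4-parameter Hill fit.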
Potency is read from the fitted curve at half-maximal effect; tags tell the direction and shape of the fitted curve.

Chain of UniProt P10635 (P10635 whole entry, looked up): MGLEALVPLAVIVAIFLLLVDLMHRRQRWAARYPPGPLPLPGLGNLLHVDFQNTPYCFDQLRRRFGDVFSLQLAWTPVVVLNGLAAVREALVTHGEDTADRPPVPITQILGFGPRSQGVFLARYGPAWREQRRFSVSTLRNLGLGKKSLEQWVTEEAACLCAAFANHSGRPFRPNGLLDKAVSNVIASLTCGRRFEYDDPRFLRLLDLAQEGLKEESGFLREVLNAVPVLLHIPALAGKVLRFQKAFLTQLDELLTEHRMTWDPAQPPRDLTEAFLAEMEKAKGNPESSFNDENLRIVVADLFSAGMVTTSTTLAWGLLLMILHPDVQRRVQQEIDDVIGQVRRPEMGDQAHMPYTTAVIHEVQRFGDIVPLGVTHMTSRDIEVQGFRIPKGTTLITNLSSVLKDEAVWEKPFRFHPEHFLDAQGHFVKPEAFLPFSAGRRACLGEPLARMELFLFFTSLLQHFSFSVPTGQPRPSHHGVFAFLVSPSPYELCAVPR

For Cc1ccc(-c2ncccn2)c(C(=O)N2C[C@H](COc3ccc(F)cn3)CC[C@H]2C)c1, the Potency [1] was “inactive”, the Potency [2] was “inactive” and the Potency (HaCat) was inconclusive: 29.1 µM [inhibitor, single point]. For the same molecule, the Potency (CAOV3) was inconclusive: 39.8 µM [cytotoxic, single point], the Potency (CASKI) was “inactive” and the Potency (OV90) was “inactive”. The Potency (SKOV3) was inconclusive: 39.8 µM [cytotoxic, single point].

For CCc1c(C)nc2c(-c3cnn(-c4cc(CO)ccn4)c3)c[nH]n2c1=O, the Potency [3] was inconclusive: 7.52 µM [inhibitor, partial curve, poor fit], the Potency (HaCat) was inconclusive: 0.13 µM [inhibitor, full curve, poor fit] and the Potency (CAOV3) was inconclusive: 39.8 µM [rising, single point]. The Potency (HeLa) was “inactive”.

For CC(=O)O[C@@H]1C=C2[C@H](CC[C@@]3(C)[C@@]2(O)CC[C@H]2Cc4c([nH]c5ccccc45)[C@@]23C)O[C@@H]1C(C)(C)O, the Potency [2] was inconclusive: 2.51 µM [inhibitor, full curve, poor fit], the Potency [4] was inconclusive: 11.2 µM [inhibitor, single point] and the Potency [5] was inconclusive: 10 µM [inhibitor, single point]. For the same molecule, the outcome (HaCat) was “inactive”, the Potency (CAOV3) was “inactive” and the Potency (SKOV3) was “inactive”.

With O=C1CCC(=O)N(O)CCCCCNC(=O)CCC(=O)N(O)CCOCCNC(=O)CCC(=O)N(O)CCCCCN1 the Potency [5] was inconclusive: 6.82 µM [inhibitor, single point], the Potency (HaCat) was inconclusive: 9.68 µM [inhibitor, partial curve, poor fit] and the Potency (CAOV3) was inconclusive: 12.6 µM [cytotoxic, single point]. For the same molecule, the Potency (OV90) was “inactive”, the Potency (SKOV3) was “inactive” and the Potency (Tov112D) was “inactive”.

With FC(F)(F)c1nnc2c(Sc3ccccc3)nc3ccc(Cl)cc3n12 the Potency [1] was active: 4.61 µM, the Potency [5] was active: 3.65 µM and the Potency (HaCat) was active: 4.61 µM. For the same molecule, the Potency (CAOV3) was inconclusive: 3.16 µM [cytotoxic, single point], the Potency (Es-2) was inconclusive: 3.98 µM [cytotoxic, single point] and the Potency (JEG-3) was “inactive”. For the same molecule, the Potency (SKOV3) was inconclusive: 0.112 µM [rising, full curve, poor fit].

With CC(C)NCC(C(=O)N1CCN(c2ncnc3c2C(C)CC3O)CC1)c1ccc(Cl)cc1 (centres undefined) the Potency [6] was inconclusive: 37.9 µM [inhibitor, single point], the Potency [4] was active: 1.83 µM and the Potency (HaCat) was inconclusive: 29.1 µM [inhibitor, single point]. For the same molecule, the Potency (C33A) was active: 3.98 µM, the Potency (HeLa) was “inactive” and the Potency (Hek293T) was inconclusive: 1.12 µM [cytotoxic, full curve]. The Potency (JEG-3) was inconclusive: 0.316 µM [cytotoxic, full curve], the Potency (OV90) was inconclusive: 10 µM [cytotoxic, partial curve, poor fit] and the Potency (SKOV3) was inconclusive: 11.2 µM [cytotoxic, partial curve, poor fit].

In the case of CC1OC(OC2CCC3(C)C(CCC4(C)C3C=CC35OCC6(CCC(C)(C)CC63)CCC45C)C2(C)CO)C(OC2OC(CO)C(O)C(O)C2O)C(O)C1OC1OC(CO)C(O)C(O)C1O (centres undefined), the Potency [4] is reported as inconclusive: 4.35 µM [inhibitor, single point], the Potency [5] is reported as inconclusive: 4.35 µM [inhibitor, single point] and the outcome (HaCat) is reported as “inactive”. For the same molecule, the activity change, negative = cytotoxicity (C33A) was inactive: 0.873% [at 11.6 µM].

In the case of CC(C(O)/C=C/C(C)(C)O)C1CCC2(C)C3C(=O)C=C4C(CCC(O)C4(C)C)C3(C)CCC12C (centres undefined), the Potency [3] is reported as “inactive”, the max response (HaCat) is reported as inactive: -4.33% and the Potency (C33A) is reported as “inactive”. The Potency (Hek293T) was “inactive”.

With COc1ccc(Cl)c(Nc2nc3ccccc3nc2NS(=O)(=O)c2cccc(NC(=O)C(C)(C)N)c2)c1 the Potency [1] was inconclusive: 20.6 µM [inhibitor, partial curve], the Potency [7] was active: 5.01 µM and the Potency [6] was inconclusive: 23.9 µM [inhibitor, single point]. The Potency [5] was active: 4.09 µM and active: 8.33 µM, the Potency (HaCat) was inconclusive: 7.31 µM [inhibitor, partial curve] and the Potency (Es-2) was “inactive”.

For CC(=O)O[C@@H]1C[C@@H](C)[C@](O)(CCC2=CC(=O)OC2)[C@@]2(C)CCCC(C)(C)C12 (some centres undefined), the Potency [4] was inconclusive: 20.1 µM [inhibitor, single point], the Potency [5] was inconclusive: 20.1 µM [inhibitor, single point] and the outcome (HaCat) was “inactive”. The Potency (CAOV3) was “inactive” and the Potency (Tov112D) was “inactive”.

In the case of CC1CCC23COC(=O)C2=CC(O)CC3C1(C)CCC1=CC(=O)OC1O (centres undefined), the Potency [2] is reported as inconclusive: 31.6 µM [inhibitor, partial curve], the Potency [7] is reported as inconclusive: 14.1 µM [inhibitor, single point] and the Potency [4] is reported as “inactive”. The Potency [3] was inconclusive: 11.7 µM [inhibitor, partial curve], the max response (HaCat) was inactive: -0.369% and the Potency (CASKI) was “inactive”. For the same molecule, the Potency (SKOV3) was inconclusive: 0.562 µM [cytotoxic, single point].

In the case of C[C@@H]1O[C@@H](O[C@H]2[C@H](O[C@H]3CC[C@@]4(C)C(CC[C@]5(C)C4CC=C4[C@@H]6CC(C)(C)CC[C@]6(C(=O)O[C@@H]6OC[C@H](O)[C@H](O)[C@H]6O[C@@H]6O[C@@H](C)[C@H](O[C@@H]7O[C@H](CO)[C@@H](O)[C@H](O)[C@H]7O)[C@H](O)[C@H]6O)[C@H](O)C[C@]45C)C3(C)C)O[C@H](CO)[C@@H](O[C@@H]3OC[C@@H](O)[C@H](O)[C@H]3O)[C@@H]2O)[C@H](O)[C@H](O)[C@H]1O (some centres undefined), the activity change, negative = cell killing [5] is reported as inactive: -15.2% [at 9.23 µM], the activity change, negative = thiol reactive [3] is reported as inactive: 113% [at 11.5 µM] and the Potency (HaCat) is reported as inconclusive: 4.36 µM [inhibitor, single point]. The Potency (CAOV3) was inconclusive: 0.316 µM [rising, full curve, poor fit].
